Assay results taken from the RNAGym collection of RNA variant scans (doi:10.7554/elife.90254).
The source gives no read counts; variants with many changes may rest on few reads.

B1: LINE1-mini (parent)
chain: GGCAGAGCUCAACACAGCGUGGCAAAGUGGCUGUGGCUAGACUGCC

Variants of: B1
Experiment: self-cleavage, relative activity (ratio to wild type); higher = more cleavage; in vitro, sequencing; the parent is a self-cleaving ribozyme

Row | Variant | self-cleavage
1 | A4G C13U A16C | 0.26
2 | A4C G30A G35U | 0.11
3 | A4G C10A A12U C15U G35A | 0.05
4 | A4C G29A G33U C46A | 0.03
5 | A4C G19C G30A | 0.03
6 | A4G A14U A39C | 0.07
7 | A4G G5A U9G U20A C46U | 0.05
8 | A4G A6C C8G C13A G27U U38G | 0.02
9 | A4G A14G U34A | 0.06
10 | A4G C10G A16G G21U | 0.04
11 | A4G G5A C23G A24G | 0.23
12 | A4G C23A G27A U28C C46U | 0.15
13 | A4G A12U C23U A41G | 0.1
14 | A4G A16G G27A U38A | 0.2
15 | A4C G19A U32C G36A | 0.06
16 | A4C U9A G35A | 0.04
17 | A4G A11G C15A U34A | 0.01
18 | A4G A14G C18G | 0.03
19 | A4C G22A G40C | 0.14
20 | A4G A6C C10G G40U | 0.01
21 | A4C G30C G33U C42A | 0.12

Row | Variant | self-cleavage
22 | A4G C10G G44A | 0.03
23 | A4C G19U C23U G27C A41G | 0.07
24 | A4G C10A C15U | 0.02
25 | A4G A11C G19A G21A G22A A25C | 0.04
26 | A4G G5A A26G C31A C45A | 0.04
27 | A4G C15A U43G | 0
28 | A4G A16U C18G | 0.06
29 | A4G A25C C31G | 0.13
30 | A4G C13A C46U | 0.45
31 | A4G G5A C8A C42A | 0.41
32 | A4G A11G C18U | 0.07
33 | A4G G5A A16G G40A U43C | 0.01
34 | A4G G5A G27U G33C C42U C46A | 0.01
35 | A4G C8A G17U G22C A25U | 0.29
36 | A4G G5C G17A C18A | 0.05
37 | A4G C18A C23U G36U | 0.01
38 | A4C G21U C46A | 0.36
39 | A4G C23U G30U | 0.16
40 | A4G C13G C15G C31U | 0.01
41 | A4G C10A A11U G19C C23A G29U C31A A39C | 0
42 | A4G C31U C37G C42A | 0.1

Row | Variant | self-cleavage
43 | A4C U32C G44A | 0.04
44 | A4G A11C C31U A41C | 0.02
45 | A4G C31A C45G C46U | 0.02
46 | A4C U34C C45U | 0.15
47 | A4G C10G C15A U28A A39G | 0.01
48 | A4G C13U G17U | 0.23
49 | A4C G27C U28C C31U C37G | 0.04
50 | A4G C8U A25U G44U | 0.06
51 | A4G C10A A16G U28C G33U G44C | 0.01
52 | A4G A14G C15G C18U G30U C31A C42G | 0.43
53 | A4G A12U A14U | 0.13
54 | A4G C8U G17C G19A | 0.14
55 | A4G C10A A14C G22U | 0.01
56 | A4G A14G G22U C31G U38A | 0.14
57 | A4G A14C A25G G35U A39U | 0.18
58 | A4G C8U A11G C13G G29U C31A G40A C42U | 0
59 | A4G C13U G17C C18A | 0.1
60 | A4G G5A C8U C15G A16C U34G G35A | 0.03
61 | A4C G29U C31U C45U | 0.04
62 | A4G C10G C15G G30U | 0
63 | A4G C8U C46A | 0.45

Row | Variant | self-cleavage
64 | A4G A6C C23G | 0.02
65 | A4C G17C G40A | 0.07
66 | A4G A6C C18U C46A | 0.2
67 | A4C G36C U43C C45U | 0.06
68 | A4G C8U A11U G44A C45U | 0.02
69 | A4G A12G A14G C18U | 0.27
70 | A4G A6C C10A G22A G36U | 0.01
71 | A4G C8A G17C | 0.05
72 | A4G C23A A25U G30C | 0.6
73 | A4G A6G C13G A25C C37A A39U | 0.02
74 | A4G C23G G30A | 0.62
75 | A4C U28A G35C A41G | 0.05
76 | A4G G5C G7A C18A | 0.06
77 | A4G A14C U20A G33C G35A C42A | 0.03
78 | A4G C23A C31U | 0.14
79 | A4G A6G C8A A14C C42G | 0.04
80 | A4G C10G G40C C42G | 0.01
81 | A4C G21A A24C C42U | 0.04
82 | A4G C10A G29A C42U | 0
83 | A4C G19U A25G G27C G30C | 0.65
